Measurements as given in article PMC12529666.
The entries are a selection whose mix differs from that of the whole data set. At the low end of the ranking, values are background and their order means little.

These sequences were tested against AGO2 F182del S387D + S824A + S828D + S831D + S834A + del182-182 (UniProt Q9UKV8) (assay: RNA Bind-n-Seq (nitrocellulose filter binding and sequencing)). Details: constant regions annealed to DNA blockers; guide miR-122 5' phosphate; 30 mM Tris pH 8.0, 100 mM potassium acetate, 2 mM magnesium acetate, 0.5 mM TCEP, 0.005% NP-40, 0.01 mg/ml yeast tRNA; 3 nM AGO2-miR-122, 100 nM RNA library …; high values mean tight binding.

| Sequence | binding signal (fold enrichment over input) |
| --- | --- |
| GAGUUCUACAGUCCGACGAUCCCAACGUACUCUGCACCUGGAAUUCUCGGGUGCCAA / UGGAGUGUGACAAUGGUGUUUG / GATCGTCGGACTGTAGAACTC / TTGGCACCCGAGAATTCCA | 0.0619 |
| GAGUUCUACAGUCCGACGAUCCCAACAUGCCUUGCACCUGGAAUUCUCGGGUGCCAA / UGGAGUGUGACAAUGGUGUUUG / GATCGTCGGACTGTAGAACTC / TTGGCACCCGAGAATTCCA | 0.0418 |
| GAGUUCUACAGUCCGACGAUCCCAACAUACCCUGCACCUGGAAUUCUCGGGUGCCAA / UGGAGUGUGACAAUGGUGUUUG / GATCGTCGGACTGTAGAACTC / TTGGCACCCGAGAATTCCA | 0.0596 |
| GAGUUCUACAGUCCGACGAUCCCAACGCAUUUUGCACCUGGAAUUCUCGGGUGCCAA / UGGAGUGUGACAAUGGUGUUUG / GATCGTCGGACTGTAGAACTC / TTGGCACCCGAGAATTCCA | 0.0358 |
| GAGUUCUACAGUCCGACGAUCCCAACGUGUUUCACACCUGGAAUUCUCGGGUGCCAA / UGGAGUGUGACAAUGGUGUUUG / GATCGTCGGACTGTAGAACTC / TTGGCACCCGAGAATTCCA | 0.111 |
| GAGUUCUACAGUCCGACGAUCCCAACGUGUUUUACACCUGGAAUUCUCGGGUGCCAA / UGGAGUGUGACAAUGGUGUUUG / GATCGTCGGACTGTAGAACTC / TTGGCACCCGAGAATTCCA | 0.0538 |
| GAGUUCUACAGUCCGACGAUCCCAACACGCUCCGCACCUGGAAUUCUCGGGUGCCAA / UGGAGUGUGACAAUGGUGUUUG / GATCGTCGGACTGTAGAACTC / TTGGCACCCGAGAATTCCA | 15.2 |
